Data reported in PMC4336329 (PLoS ONE, 2015).
Screen size: about 310,000 compounds; about 2,200 (0.71%) showed an effect of 50% or more. Effects have a minus sign here. Some of the results follow.

target: human ether-à-go-go-related gene (hERG) potassium channel (human, UniProt Q12809); experiment: primary screen, population patch clamp on CHO cells stably expressing hERG
Sequence (Q12809 whole entry, looked up): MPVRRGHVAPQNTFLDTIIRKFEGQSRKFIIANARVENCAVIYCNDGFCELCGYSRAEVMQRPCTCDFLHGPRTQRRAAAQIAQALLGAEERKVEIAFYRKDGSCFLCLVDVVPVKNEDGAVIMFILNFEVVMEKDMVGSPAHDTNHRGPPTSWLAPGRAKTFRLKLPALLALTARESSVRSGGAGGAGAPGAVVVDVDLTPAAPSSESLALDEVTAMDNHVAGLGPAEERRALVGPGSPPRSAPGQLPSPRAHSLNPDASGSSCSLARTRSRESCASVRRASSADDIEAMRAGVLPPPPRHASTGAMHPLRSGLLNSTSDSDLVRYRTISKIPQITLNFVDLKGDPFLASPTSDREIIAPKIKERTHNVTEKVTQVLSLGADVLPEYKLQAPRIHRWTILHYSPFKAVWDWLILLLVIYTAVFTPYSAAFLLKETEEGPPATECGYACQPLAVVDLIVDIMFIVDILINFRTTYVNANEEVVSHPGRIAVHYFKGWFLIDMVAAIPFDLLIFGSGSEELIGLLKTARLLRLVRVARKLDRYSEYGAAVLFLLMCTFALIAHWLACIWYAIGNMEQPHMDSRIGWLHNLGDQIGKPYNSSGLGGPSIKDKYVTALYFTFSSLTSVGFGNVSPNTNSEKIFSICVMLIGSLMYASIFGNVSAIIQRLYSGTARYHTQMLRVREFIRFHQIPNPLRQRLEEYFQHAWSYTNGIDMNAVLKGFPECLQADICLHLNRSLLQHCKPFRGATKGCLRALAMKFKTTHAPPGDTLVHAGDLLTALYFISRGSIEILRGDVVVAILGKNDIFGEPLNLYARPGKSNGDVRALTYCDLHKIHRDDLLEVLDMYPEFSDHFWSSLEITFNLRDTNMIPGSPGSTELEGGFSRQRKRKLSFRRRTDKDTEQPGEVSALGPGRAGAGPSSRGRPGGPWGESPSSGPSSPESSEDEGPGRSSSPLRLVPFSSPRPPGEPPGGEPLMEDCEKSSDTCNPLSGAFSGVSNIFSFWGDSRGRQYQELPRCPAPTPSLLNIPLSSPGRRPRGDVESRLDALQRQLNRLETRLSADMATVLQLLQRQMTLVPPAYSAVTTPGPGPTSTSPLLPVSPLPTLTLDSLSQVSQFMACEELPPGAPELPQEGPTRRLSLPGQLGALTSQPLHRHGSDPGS

Compared with `Cc1ccc(CNC(=O)C(=O)NCC2OCCN2C(=O)c2ccc(Cl)cc2)cc1` (stereo not drawn), `CCOc1ccccc1C(=O)NCC(=O)NCc1ccc(S(=O)(=O)N2CCOCC2)cc1` is lower in “hERG current change (%, negative = inhibition) at 1uM” value: 14.4% for the first, 2.85% for the second.

Compared with `CCc1nnc(NC(=O)NCN2C(=O)C3C4C=CC(C4)C3C2=O)s1` (stereo not drawn), `CCCn1nnnc1SCC(=O)Nc1nnc(CC)s1` is higher in “hERG current change (%, negative = inhibition) at 1uM” value: 8.25% for the first, 14.3% for the second.

Going from `C[n+]1cccc(C(=O)N/N=C/c2ccc3c(c2)OCO3)c1.[I-]` to `O=C(O)c1ccc(/C=N/Nc2ccc(F)cc2F)cc1`, the “hERG current change (%, negative = inhibition) at 1uM” value falls from 14.6% to 14.4%.

Compared with `COc1ccc(S(=O)(=O)N2CCOCC2)cc1C(=O)NC1CCCCC1`, `CC1CCCN(S(=O)(=O)c2ccc(NC(=O)CN3CCCCC3)cc2)C1` (stereo not drawn) is lower in “hERG current change (%, negative = inhibition) at 1uM” value: 4.36% for the first, -24.9% for the second.

Going from `Nc1nc(COc2ccc(Cl)cc2)cs1` to `CNC(=O)c1nnc(Cc2ccc(Cl)cc2)o1`, the “hERG current change (%, negative = inhibition) at 1uM” value rises from 5.28% to 9.49%.

Going from `C=CCNC(=O)c1ccccc1NC(=O)c1ccccc1SC` to `CSc1ccccc1C(=O)Nc1cc([N+](=O)[O-])ccc1C`, the “hERG current change (%, negative = inhibition) at 1uM” value falls from 4.19% to 2.38%.

Compared with `CC(=O)Nc1ccc(S(=O)(=O)N(C)CC(=O)OC2CCCCC2=O)cc1` (stereo not drawn), `Cc1ccc(S(=O)(=O)N(C)CC(=O)N2CCN(Cc3ccc4c(c3)OCO4)CC2)cc1` is lower in “hERG current change (%, negative = inhibition) at 1uM” value: 4.14% for the first, -40.2% for the second.

First: O=C(CSc1nc2ccccc2c(=O)[nH]1)N1CCN(c2ccccc2F)CC1
Second: CN1C(=O)Cc2cc(S(=O)(=O)N3CCN(c4ccccc4F)CC3)ccc21
The “hERG current change (%, negative = inhibition) at 1uM” value of the first is higher: 12.1% for the first, 0.287% for the second.

Going from `Cc1noc(C(=O)Nc2cc(Cl)ccc2O)c1Cl` to `Cc1nn(Cc2c(Cl)cccc2Cl)c(C)c1NC(=O)c1cc(C(C)C)on1`, the “hERG current change (%, negative = inhibition) at 1uM” value falls from 25.7% to 13.4%.

Compared with `COc1ccccc1Oc1c(C)oc2c(CN3CCN(CCO)CC3)c(O)ccc2c1=O`, `COc1cc(CC2COC(=O)C2(O)Cc2ccc(O)c(OC)c2)ccc1O` (stereo not drawn) is lower in “hERG current change (%, negative = inhibition) at 1uM” value: 15.1% for the first, 6.78% for the second.

Compared with `O=C(Cc1c(F)cccc1Cl)Nc1ccc(S(=O)(=O)Nc2nccs2)cc1`, `O=C(Nc1ccc(Br)cc1)c1cccc(S(=O)(=O)Nc2ccccn2)c1` is higher in “hERG current change (%, negative = inhibition) at 1uM” value: 6.72% for the first, 16.9% for the second.

First: Cc1ccc(NC(=O)c2nc[nH]c2C(=O)N(C)Cc2ccccc2)cc1
Second: Cc1ccc(C(=O)Nc2cccc(C(O)c3ccccc3)c2)cc1 (stereo not drawn)
The “hERG current change (%, negative = inhibition) at 1uM” value of the first is higher: 5.93% for the first, 2.72% for the second.

Going from `CCOC(=O)/C(C#N)=C(C)/C=C1\Sc2ccccc2N1CC` to `CCOC(=O)c1[nH]c2ccccc2c1NC(=O)c1ccco1`, the “hERG current change (%, negative = inhibition) at 1uM” value rises from 4.77% to 7.86%.

Compared with `Cc1ccccc1N(C)S(=O)(=O)c1ccc2[nH]cc(C(=O)NCC3CCCO3)c(=O)c2c1` (stereo not drawn), `Cc1ccc(S(=O)(=O)N(C)Cc2cc3ccccc3[nH]c2=O)cc1` is lower in “hERG current change (%, negative = inhibition) at 1uM” value: 6.03% for the first, -14.8% for the second.

First: CC1Oc2ccccc2C=C1/C=N/NC(=O)[C@@H](C)NC(=O)OC(C)(C)C (stereo partly drawn)
Second: CC(C)(C)CC(=O)Nc1ccc(Nc2ccccc2)cc1
The “hERG current change (%, negative = inhibition) at 1uM” value of the first is lower: 3.34% for the first, 12.9% for the second.

Going from `Cc1nc2ccccn2c1-c1nnco1` to `Cc1ccc(Nc2nc(N)c3ccccc3n2)cc1C.Cl`, the “hERG current change (%, negative = inhibition) at 1uM” value rises from 2.15% to 9.42%.

First: CCNC(=S)N1CCC(Cc2ccccc2)CC1
Second: CC(=O)c1cc(-c2ccccc2)[nH]c1N1CCCC1
The “hERG current change (%, negative = inhibition) at 1uM” value of the first is higher: 8.21% for the first, 6.44% for the second.

Compared with `COc1ccc(CCNC(=O)c2ccc3c(c2)NC(=O)C(CSCc2cc(C)ccc2C)N3)cc1OC` (stereo not drawn), `COc1ccc(CCNC(=O)CCn2c(=O)c3cccn3c3cccnc32)cc1OC` is lower in “hERG current change (%, negative = inhibition) at 1uM” value: 11% for the first, -0.859% for the second.

Compared with `CC(C)C(NC(=O)c1ccccc1NC(=O)c1ccccc1)C(=O)NNC(=O)c1ccncc1` (stereo not drawn), `O=C(CC(Nc1cccc(Cl)c1Cl)C(=O)OCC(=O)c1cccs1)c1ccccc1` (stereo not drawn) is lower in “hERG current change (%, negative = inhibition) at 1uM” value: 16.3% for the first, 7.37% for the second.

Going from `Cc1cccc2c(CC(=O)O)noc12` to `CC(=O)c1cccc(N=Cc2c(O)c3ccccc3oc2=O)c1`, the “hERG current change (%, negative = inhibition) at 1uM” value rises from 0.409% to 15.2%.

Going from `CN1CCc2c(sc3c2c(=O)n(-c2ccccc2)c2nncn32)C1` to `O=c1c(Br)c(N2CCCC2)cnn1-c1ccccc1`, the “hERG current change (%, negative = inhibition) at 1uM” value rises from 7.37% to 11.9%.

Compared with `O=C(CSc1n[nH]c(-c2cccs2)n1)NCc1ccc2c(c1)OCO2`, `O=C(CSc1ccc(-c2cccs2)nn1)NCc1ccccc1Cl` is higher in “hERG current change (%, negative = inhibition) at 1uM” value: -0.326% for the first, 7.81% for the second.

Going from `O=C(N/N=C/c1cc(Br)c(O)c(Br)c1)C1CC1` to `CSc1ccc(/C=N\NC(=O)COc2ccc(Cl)cc2Br)cc1`, the “hERG current change (%, negative = inhibition) at 1uM” value falls from 7.8% to 7.48%.

Compared with `CCC(C)(C)NC(=O)CN(Cc1ccc(F)cc1)C(=O)CCC(=O)Nc1ccccn1`, `CC(C)(C)c1ccc(C(=O)NC(=S)NCc2ccco2)cc1` is higher in “hERG current change (%, negative = inhibition) at 1uM” value: 1.36% for the first, 12% for the second.

First: COc1ccc(NC(=O)/C=C/C(=O)O)c([N+](=O)[O-])c1
Second: COc1cccc(/C=C/C(=O)OCC(=O)NC(=O)NC2CCCCC2)c1
The “hERG current change (%, negative = inhibition) at 1uM” value of the first is higher: 6.56% for the first, 2% for the second.

First: O=C(Cc1ccccc1)NC1(O)C(=O)c2ccccc2C1=O
Second: Cc1ccccc1NC1=NC(=S)N(c2ccccc2)C12CCCCC2
The “hERG current change (%, negative = inhibition) at 1uM” value of the first is lower: 10.5% for the first, 15.1% for the second.

Going from `c1ccc2c(c1)ncn2-c1ccc(-c2ccnc3ncnn23)cc1` to `Cc1ccc(N2C(=O)NC(NS(=O)(=O)c3ccccc3)(C(F)(F)F)C2=O)cc1` (stereo not drawn), the “hERG current change (%, negative = inhibition) at 1uM” value rises from -18.7% to 11.6%.

First: CN=C1SC(CC(=O)Nc2ccccc2F)C(=O)N1C (stereo not drawn)
Second: O=C(NCc1ccccc1F)C1CCCN1S(=O)(=O)c1ccc(F)cc1 (stereo not drawn)
The “hERG current change (%, negative = inhibition) at 1uM” value of the first is lower: 16.2% for the first, 18.1% for the second.

Going from `Cc1cc(C)cc(NS(=O)(=O)c2ccc(F)cc2)c1` to `Cc1ccc(S(=O)(=O)N2CCCc3ccccc32)cc1C`, the “hERG current change (%, negative = inhibition) at 1uM” value rises from 8.52% to 12.5%.

Compared with `Cc1c([N+](=O)[O-])c([N+](=O)[O-])nn1CC(=O)NCCc1ccccc1`, `CCC1Oc2ccc(C)cc2N(CC(=O)NCc2cccs2)C1=O` (stereo not drawn) is lower in “hERG current change (%, negative = inhibition) at 1uM” value: 21.1% for the first, 3.74% for the second.

Going from `CCCCOCCOCCOCCCC` to `CCOCCCNC(=O)C1CCC(CNS(=O)(=O)c2ccc(OC)cc2)CC1` (stereo not drawn), the “hERG current change (%, negative = inhibition) at 1uM” value rises from 8.37% to 13.2%.

First: CC(C)C(=O)N1N=C(c2ccc(NS(C)(=O)=O)cc2)CC1c1cccs1 (stereo not drawn)
Second: CCc1ccccc1NC(=O)c1cc(-c2ccc(OC)cc2)on1
The “hERG current change (%, negative = inhibition) at 1uM” value of the first is lower: -24.6% for the first, 14.3% for the second.

Going from `CCNC(=O)c1ccc(NC(=O)CC2SC(N3CCCC3)=NC2=O)cc1` (stereo not drawn) to `CCOc1ccc(NC(=O)CSc2nnnn2CC(=O)O)cc1`, the “hERG current change (%, negative = inhibition) at 1uM” value falls from 22.7% to 14.5%.

Going from `CC(C)Oc1ccc(CC2(CCc3ccncc3)C(=O)NC(=O)NC2=O)cc1` to `COc1ccc(CNC(=O)Nc2ccc3c(c2)N(C)C(=O)CS3)cc1`, the “hERG current change (%, negative = inhibition) at 1uM” value falls from 12.1% to 8.56%.

First: CCn1c(=O)c(=O)[nH]c2cc(C(=O)N3CCN(Cc4ccc5c(c4)OCO5)CC3)ccc21
Second: COc1cccc(C(=O)N2CCN(Cc3nc(CC4CC4)no3)CC2)c1
The “hERG current change (%, negative = inhibition) at 1uM” value of the first is lower: 7.63% for the first, 7.76% for the second.

First: COc1ccc(-c2cn[nH]c2-c2ccc(OCC(=O)NN)cc2O)cc1
Second: COc1ccc(C(=O)c2c3ccc([N+](=O)[O-])cc3[n+]([O-])n2CCC[NH3+])cc1.[Cl-]
The “hERG current change (%, negative = inhibition) at 1uM” value of the first is higher: 12.9% for the first, -13.5% for the second.

First: CCCOc1ccc(CNC(=O)C2CCN(c3nn4c(=O)cc(C)nc4s3)CC2)cc1
Second: O=C(NCc1ccc(-c2csnn2)cc1)C1CC1
The “hERG current change (%, negative = inhibition) at 1uM” value of the first is lower: 6.43% for the first, 10.1% for the second.

Compared with `COc1c(C(=O)Nc2nccs2)ccc2ccccc12`, `C(=N\Nc1ccccn1)/c1c[nH]c2ccccc12` is lower in “hERG current change (%, negative = inhibition) at 1uM” value: 12.6% for the first, 11.7% for the second.

Going from `COc1ccc(-c2csc(NC(=O)C(CC(=O)O)N3CCOCC3)n2)cc1` (stereo not drawn) to `O=C(Oc1ccc(-c2ccccc2)cc1)N1CCCCC1`, the “hERG current change (%, negative = inhibition) at 1uM” value falls from 11.4% to 2.42%.

Compared with `COC(=O)C1=C(c2ccc3ccccc3c2)C[C@@H]2CC[C@H]1N2C(=O)NCc1ccc(C(F)(F)F)cc1`, `COC(=O)c1ccc(Cn2nnc3c(=O)[nH]c(C4CCCN(S(=O)(=O)c5ccc(C)cc5)C4)nc32)cc1` (stereo not drawn) is higher in “hERG current change (%, negative = inhibition) at 1uM” value: 12.3% for the first, 14.5% for the second.

Going from `C/C(=N\Nc1cc(Cl)nc(C)n1)c1ccc(Cl)c(Cl)c1` to `CC(=NCCN1CCCCC1)c1c(O)n(-c2ccc(Cl)cc2)c(=O)[nH]c1=O`, the “hERG current change (%, negative = inhibition) at 1uM” value falls from 6.97% to 3.4%.

Going from `COC(=O)C1=NNC2C(=O)N(c3ccc(C)cc3)C(=O)C12` (stereo not drawn) to `Cn1c(O)c(C=NCCc2c[nH]c3ccccc23)c(=O)n(C)c1=O`, the “hERG current change (%, negative = inhibition) at 1uM” value rises from 8.89% to 10.4%.

Going from `COc1cc2cc(CN(CCCO)S(=O)(=O)c3ccccc3)c(=O)[nH]c2cc1OC` to `CCOc1cc(/C=C2\N=C(C)OC2=O)cc(Br)c1OCCc1ccccc1`, the “hERG current change (%, negative = inhibition) at 1uM” value rises from 5.47% to 15.4%.

First: O=C(c1ccco1)N(CCC(c1ccccc1)c1ccco1)Cc1ccco1 (stereo not drawn)
Second: CC(C)NC(=S)Nc1cccc2cnccc12
The “hERG current change (%, negative = inhibition) at 1uM” value of the first is higher: 10.6% for the first, 6.24% for the second.

Compared with `c1nnc(NC2=NCCCCC2)s1`, `COc1cc(N)c(Cl)cc1C(=O)NC1CN2CCC1CC2.Cl.O` (stereo not drawn) is lower in “hERG current change (%, negative = inhibition) at 1uM” value: 12.4% for the first, 1.36% for the second.
